Consider 27 compounds from the antibiotic and cytotoxicity screens of Wong et al. (2023).

Each structure is given as a SMILES string. The list shows a part of the results.

One test concerns HSkMC. Put plainly: cytotoxicity call (relative viability < 0.9). The settings on record: 10 µM.
Another test relates to HepG2. Put plainly: cytotoxicity call (relative viability < 0.9). The settings on record: 10 µM.
In the next test the test system is S. aureus RN4220. Put plainly: growth inhibition call (relative growth <= 0.2). The settings on record: 50 µM.

Consider `O=C(C[C@@H]1C[C@@H]2c3cc(NC(=O)c4ccc5c(c4)OCO5)ccc3O[C@@H]2[C@H](CO)O1)NCCN1CCCCC1`, for which the cytotoxicity call in the test with HSkMC and with HepG2 was “inactive” in each case. Also, in the test on S. aureus RN4220, the growth inhibition call was “inactive”.
On to `CNC[C@H]1OCCCC[C@@H](C)Oc2ccc(NC(=O)Nc3ccc(C(F)(F)F)cc3)cc2C(=O)N([C@@H](C)CO)C[C@H]1C`, for which the cytotoxicity call with HSkMC and with HepG2 was “inactive” throughout. For the same compound, in the test with S. aureus RN4220, the growth inhibition call was “inactive”.
For `CCC(=O)N[C@H]1C=C[C@H](CC(=O)OC)O[C@@H]1CO`, the cytotoxicity call in the test on HSkMC and with HepG2 was “inactive” each time. Also, the growth inhibition call in the test with S. aureus RN4220 is “inactive”.
Consider `Cc1ccc(S(=O)(=O)N(C)C[C@H]2Oc3c(NC(=O)c4cc(C)nn4C)cccc3C(=O)N([C@@H](C)CO)C[C@H]2C)cc1`, for which the cytotoxicity call with HSkMC and with HepG2 was “inactive” throughout. The growth inhibition call with S. aureus RN4220 was “inactive”.
As to `O=C(NO)c1cccc(C(=O)N/N=C/[C@H](O)[C@@H](O)[C@@H](O)[C@H](O)CO)c1`, the cytotoxicity call in the test with HSkMC and in the test on HepG2 was “inactive” throughout. Also, the growth inhibition call in the test on S. aureus RN4220 is “inactive”.
Turning to `CN(C)C(=O)C[C@H]1CC[C@@H]2[C@H](COC[C@H](O)CN2S(=O)(=O)c2ccccc2)O1`, the cytotoxicity call in the test on HSkMC and in the test on HepG2 was “inactive” in each case. Also, the growth inhibition call in the test with S. aureus RN4220 is “inactive”.
Consider `C[C@H]1CN([C@@H](C)CO)C(=O)c2cccc(NS(=O)(=O)c3ccc(Cl)cc3)c2O[C@H]1CN(C)Cc1ccc(Cl)c(Cl)c1`, for which the cytotoxicity call in the test with HSkMC and in the test on HepG2 was “inactive” each time. The growth inhibition call with S. aureus RN4220 was “inactive”.
For the compound `O=C(C[C@@H]1CC[C@H]2[C@@H](COC[C@@H](O)CN2S(=O)(=O)c2ccccc2Cl)O1)NCCc1ccncc1`, the cytotoxicity call with HSkMC and with HepG2 was “inactive” throughout. Also, the growth inhibition call in the test with S. aureus RN4220 is “inactive”.
As for `Cc1noc(C)c1NC(=O)Nc1cccc2c1O[C@H](CN(C)S(=O)(=O)c1cn(C)cn1)[C@@H](C)CN([C@@H](C)CO)C2=O`, the cytotoxicity call with HSkMC and with HepG2 was “inactive” throughout. Further, in the test on S. aureus RN4220, the growth inhibition call is “inactive”.
Consider `O=C(C[C@@H]1C[C@@H]2c3cc(NC(=O)Cc4ccncc4)ccc3O[C@@H]2[C@@H](CO)O1)NCc1ccc2c(c1)OCO2`, for which the cytotoxicity call with HSkMC and with HepG2 was “inactive” each time. In addition, in the test on S. aureus RN4220, the growth inhibition call is “inactive”.
Regarding `COc1ccc(S(=O)(=O)N(C)C[C@@H]2Oc3ccc(NS(=O)(=O)c4ccccc4)cc3C(=O)N([C@H](C)CO)C[C@H]2C)cc1`, the cytotoxicity call in the test on HSkMC and in the test with HepG2 was “inactive” throughout. Further, in the test on S. aureus RN4220, the growth inhibition call is “inactive”.
For `COCCNC(=O)C[C@@H]1CC[C@H]2[C@@H](COC[C@H](O)CN2C(=O)Nc2ccccc2OC)O1`, the cytotoxicity call in the test on HSkMC and in the test with HepG2 was “inactive” throughout. Further, in the test on S. aureus RN4220, the growth inhibition call was “inactive”.
In the case of `C[C@H](CO)N1C[C@H](C)[C@H](CN(C)Cc2ccncc2)OCCCC[C@H](C)Oc2ccc(NC(=O)C3CCCCC3)cc2C1=O`, the cytotoxicity call in the test on HSkMC and with HepG2 was “inactive” in each case. Further, the growth inhibition call with S. aureus RN4220 was “inactive”.
Take `C[C@H]1CN([C@@H](C)CO)C(=O)Cc2cc(NC(=O)Nc3ccc(F)cc3)ccc2O[C@@H]1CN(C)Cc1ccc(C(=O)Nc2ccccc2N)cc1`: the cytotoxicity call with HSkMC and in the test with HepG2 was “inactive” in each case. For the same compound, in the test with S. aureus RN4220, the growth inhibition call was “inactive”.
As for `C[C@H]1CCCCO[C@@H](CN(C)Cc2ccccc2)[C@@H](C)CN([C@@H](C)CO)C(=O)c2cc(NC(=O)Cc3ccccc3)ccc2O1`, the cytotoxicity call in the test on HSkMC and with HepG2 was “inactive” each time. The growth inhibition call in the test on S. aureus RN4220 is “inactive”.
In the case of `COc1ccc(NC(=O)N(C)C[C@@H]2Oc3ccc(NS(=O)(=O)c4cn(C)cn4)cc3CC(=O)N([C@@H](C)CO)C[C@H]2C)cc1`, the cytotoxicity call in the test with HSkMC and in the test with HepG2 was “inactive” throughout. Moreover, the growth inhibition call in the test on S. aureus RN4220 is “inactive”.
Turning to `C[C@@H]1CN([C@@H](C)CO)C(=O)c2cc(C#Cc3ccc(F)cc3)cnc2O[C@H]1CN(C)CC1CCOCC1`, the cytotoxicity call with HSkMC and with HepG2 was “inactive” each time. Also, the growth inhibition call in the test on S. aureus RN4220 is “inactive”.
As to `C[C@H]1CN([C@@H](C)CO)C(=O)Cc2cc(NS(C)(=O)=O)ccc2O[C@H]1CN(C)S(C)(=O)=O`, the cytotoxicity call in the test on HSkMC and in the test on HepG2 was “inactive” throughout. The growth inhibition call in the test with S. aureus RN4220 is “inactive”.
For the compound `Cc1ccc(S(=O)(=O)N(C)C[C@@H]2Oc3ncc(C#CCC(C)C)cc3C(=O)N([C@H](C)CO)C[C@@H]2C)cc1`, the cytotoxicity call with HSkMC and in the test with HepG2 was “inactive” each time. Further, in the test with S. aureus RN4220, the growth inhibition call was “inactive”.
For `CCCNC(=O)N(C)C[C@@H]1Oc2cc(-c3ccc(C)cc3)ccc2S(=O)(=O)N([C@@H](C)CO)C[C@H]1C`, the cytotoxicity call in the test on HSkMC and with HepG2 was “inactive” throughout. Further, in the test on S. aureus RN4220, the growth inhibition call is “inactive”.
For the compound `Cc1ccc(-c2ccc3c(c2)O[C@@H](CN(C)C(=O)CN(C)C)[C@H](C)CN([C@@H](C)CO)S3(=O)=O)cc1`, the cytotoxicity call in the test with HSkMC and with HepG2 was “inactive” in each case. In addition, the growth inhibition call in the test with S. aureus RN4220 was “inactive”.
For the compound `C[C@@H]1CN([C@H](C)CO)C(=O)c2cccc(NC(=O)CCCCCC(=O)Nc3ccccc3N)c2O[C@@H]1CN(C)Cc1ccccc1`, the cytotoxicity call in the test with HSkMC and with HepG2 was “inactive” throughout. Further, the growth inhibition call with S. aureus RN4220 is “inactive”.
As to `Cc1noc(C)c1S(=O)(=O)N(C)C[C@H]1OCCCC[C@@H](C)Oc2ccc(NS(=O)(=O)c3cn(C)cn3)cc2C(=O)N([C@@H](C)CO)C[C@@H]1C`, the cytotoxicity call in the test with HSkMC and in the test with HepG2 was “inactive” in each case. Also, the growth inhibition call in the test on S. aureus RN4220 is “inactive”.
Regarding `C[C@@H]1CN([C@@H](C)CO)C(=O)c2cc(NS(=O)(=O)c3ccccc3)ccc2O[C@@H](C)CCCCO[C@@H]1CN(C)C(=O)Nc1ccc2c(c1)OCO2`, the cytotoxicity call with HSkMC and with HepG2 was “inactive” each time. In addition, the growth inhibition call in the test on S. aureus RN4220 is “inactive”.
On to `CCc1[nH]c(=S)[nH]c(=O)c1C#N`, for which the cytotoxicity call in the test on HSkMC and in the test on HepG2 was “inactive” in each case. In addition, in the test with S. aureus RN4220, the growth inhibition call was “inactive”.
Take `C[C@H]1CN([C@@H](C)CO)C(=O)c2cc(C#CC3(O)CCCC3)cnc2O[C@H]1CN(C)S(=O)(=O)c1ccc(F)cc1`: the cytotoxicity call with HSkMC and in the test with HepG2 was “inactive” throughout. The growth inhibition call with S. aureus RN4220 is “inactive”.
On to `C[C@@H]1CN([C@@H](C)CO)C(=O)c2cccc(NC(=O)c3ccncc3)c2O[C@H]1CN(C)S(=O)(=O)c1cn(C)cn1`, for which the cytotoxicity call in the test on HSkMC (human skeletal muscle cells) is “inactive”. Besides, the cytotoxicity call with HepG2 was “active”. For the same compound, in the test on S. aureus RN4220, the growth inhibition call is “inactive”.
